Consider 1 molecule from patent CN108264558A (SHANGHAI NOVOPROTEIN BIOTECHNOLOGY CO LTD, dated 2018).

Test [1] concerns the target T1, CD19-CD3-4-1BBL TsM_M.
T1 construct: monomer confirmed by SDS-PAGE and mass spectrometry; also called 单体形式的抗CD19/抗CD3/4-1BBL三特异性分子; 单体形式的TiTE三特异分子
Kind of test: ELISA, target coated at 1 μg/ml, TsM titrated from 10 μg/ml. Background: An ELISA detects its analyte on a solid surface through an enzyme-linked reagent.

Test [2] deals with T2, CD19-CD3-4-1BBL TsM_D.
T2 construct: Two chains joined by disulfide bonds of the IgD hinge (dimer by non-reducing SDS-PAGE and mass spectrometry); also called 二聚体形式的抗CD19/抗CD3/4-1BBL三特异性分子; 二聚体形式的TiTE三特异分子
The description is as above.

B1: 人类4-1BB-hFc融合蛋白 (Fc fusion)
chain: not shown
notes: Bought from 吴江近岸蛋白质科技有限公司; also called 重组蛋白4-1BB-hFc; T细胞正共刺激分子4-1BB-hFc; not shown: human Fc (hFc)
Turning to B1, the binding result in test [1] and in test [2] was “binds” each time.
